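Method: 48-hour compound exposure of cells in 96-well plates, five concentrations, linear interpolation of endpoints. Here, GI50 denotes the concentration required for 50% inhibition of growth.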 Calls of active or inactive are those of the source. Cut-off read from the data, not from the text of the source: active = GI50 up to about 1.1 µM and inactive = higher. Bounds are passed on as bounds.

The test system of the assay is NCI-H322M. The assay can be described thus: NCI tumour cell line growth inhibition, 48 h.
With `O=C1c2cccc([N+](=O)[O-])c2C(=O)N1c1ncn[nH]1`, the GI50 is inactive: > 100 µM.

Take `Nc1cc(C(=O)O)nc(O)n1`: the GI50 was inactive: > 100 µM. Under `CSc1nnnc2ccccc12` stands inactive: > 100 µM; under `O=C(c1ccc(Cl)cc1)N(C(=S)OCCOc1ccccc1)c1ccccc1`, inactive: 21.4 µM; under `O=C(c1cccs1)N(C(=S)OCCOc1ccccc1)c1ccccc1`, inactive: 36.3 µM. Under `COc1ccc(CN(CCc2c[nH]c3ccccc23)Cc2ccc(OC)cc2)cc1` stands inactive: 3.29 µM.

Consider `CCN(CC)Cc1cc(Nc2c3ccccc3nc3c4ccccc4n(C)c23)cc(CN(CC)CC)c1O`, for which the GI50 is inactive: 4.01 µM. The result for `N#CC(C#N)=C(N)/C(C#N)=C/c1ccc2ccccc2n1` reads inactive: > 100 µM. Under `CCCNC1=Nc2ccccc2NC(C)C1` (stereo not given) stands inactive: > 100 µM; under `C[N+](C)(C)CC1Cc2ccccc2C1=O` (stereo not given), inactive: > 10 µM; under `CCC(c1ccc2cc(O)ccc2c1)C(C)(C)C(=O)O` (stereo not given), inactive: > 100 µM. Under `C=CCCCCCCCCCOC1C=CC(O)C(CO)O1` (stereo not given) stands inactive: > 100 µM; under `CC1(C)C2CCC(N)(C2)C1O` (stereo not given), inactive: > 100 µM; under `CCn1c(SC(C)C(=O)c2c(C)n(C)n(-c3ccccc3)c2=O)nc2ccccc2c1=O` (stereo not given), inactive: > 100 µM. As for `CC(=O)O[C@@H]1CC[C@@]2(C)C(CC[C@H]3[C@@H]4CC[C@H]([C@H](C)CCc5nc6cc(C)ccc6[nH]5)[C@@]4(C)CC[C@@H]32)C1` (stereo not given in full), the GI50 is inactive: 32.2 µM. The result for `N#CC1CC2(C(=O)C1=O)c1ccccc1-c1ccccc12` (stereo not given) reads inactive: > 100 µM.

Take `NNC(=O)CNC(=O)c1ccc(Cl)cc1Cl`: the GI50 is inactive: > 100 µM. Under `CCCCCCN(CCCCCC)CCC(=O)c1ccc2cc(Br)c3ccccc3c2c1` stands inactive: > 100 µM. The result for `Cc1ccc(NC(=O)c2cccc(OP(=O)(Nc3ccc(C)cc3)Nc3ccc(C)cc3)c2)cc1` reads inactive: 30.3 µM; that for `O=C1c2ccccc2OCC12OC21C=CC(Cl)=CC1` (stereo not given), inactive: 24.9 µM; that for `O=C(CC(=O)N1N=C(c2ccccc2)C(/N=N/c2ccc(Cl)cc2)C1=O)Nc1ccccc1Cl` (stereo not given), inactive: 29.2 µM.

Regarding `Cc1ccc2nc(-c3ccc(N4C(=O)C(Cl)C4c4ccc(Cl)cc4)cc3)sc2c1` (stereo not given), the GI50 is inactive: 19 µM. The result for `CN(C)CCNC(=O)c1cccc2ncc(-c3ccccc3)nc12` reads inactive: 8.49 µM; that for `O=C(Nc1ccc(Cl)cc1)c1cc(S(=O)(=O)Nc2n[nH]c(=O)n2-c2ccccc2)c(S)cc1Cl`, inactive: > 100 µM. The result for `O=C1/C(=C/c2cccc([N+](=O)[O-])c2)N=C(c2ccccc2)N1c1nc2c(Cl)cc(Cl)cc2s1` reads inactive: 34.5 µM; that for `CO[C@H](C)[C@](O)(C(=O)OCC1=CCN2CC[C@@H](O)[C@H]12)C(C)C`, inactive: > 100 µM; that for `Cc1cccc2c(N)c3cccc(C(=O)NCC[N+]4(Cc5ccc([N+](=O)[O-])cc5)CCOCC4)c3nc12`, inactive: 41.7 µM. In the case of `COC(=O)c1cc(=O)nc2sc3cccc(C)c3n12`, the GI50 was inactive: 53.7 µM. Under `CC(=O)NC1=C(NC(C)(C)C)C(=O)c2ccccc2C1=O` stands inactive: > 100 µM; under `CNC(=O)/C(C#N)=C(\N)N1CCCC1`, inactive: > 100 µM. Under `CC(C)N(C(=O)C12C3C4C1C1C4(C#N)C3C12C#N)C(C)C` (stereo not given) stands inactive: > 100 µM. Regarding `CC1(S)CC2C(CC1Sc1ccccc1)C2(C)C` (stereo not given), the GI50 is inactive: > 100 µM. The result for `C=CCSC(C)=O` reads inactive: > 100 µM. Under `COc1ccc(/C=C2\N/C(=N\N=C/C(O)C(O)C(O)C(O)CO)NC2=O)cc1` (stereo not given) stands inactive: > 100 µM; under `O=C1C(Cl)=C(NCCF)C(=O)c2ncccc21`, inactive: 1.56 µM; under `COc1cc(CNc2nc3ccccc3n2Cc2ccccc2)cc(CN2CCOCC2)c1O`, inactive: 11.5 µM. The result for `O=c1[nH]cnc2c1sc1nc3ccccc3n12` reads inactive: > 100 µM; that for `c1ccc2c(c1)SP1Sc3ccccc3P21` (stereo not given), inactive: > 100 µM. For the compound `CCCOC(=O)C1CCC(=O)N1C(=O)C(C)Cl` (stereo not given), the GI50 is inactive: > 100 µM. For `O=C1CCCN1C(=O)CS(=O)(=O)c1ccccc1`, the GI50 was inactive: > 100 µM. Under `COCN1C(=O)[C@@H]2CCCN2C(=O)c2cc(Cl)ccc21` stands inactive: > 100 µM; under `COc1ccc2c(c1)C(=O)CC(C(N)=O)C2` (stereo not given), inactive: > 100 µM; under `Brc1sc(Br)c2c1[C@H](Br)C[C@@H]2Br`, inactive: > 100 µM.

For `CNc1nc(=S)[nH]c2sc3c(c12)CCCC3`, the GI50 was inactive: > 75 µM. For `CC(=O)OCC(OC(C)=O)C(OC(C)=O)C(OC(C)=O)C(C=NN(C(C)=O)S(=O)(=O)c1ccc(/C=C2\NC(=O)NC2=O)cc1)OC(C)=O` (stereo not given), the GI50 is inactive: > 100 µM.

Regarding `O=C1NC(=S)NC(=O)C1C(c1ccc([N+](=O)[O-])cc1)C1C(=O)NC(=S)NC1=O.c1ccncc1`, the GI50 was inactive: > 100 µM. The result for `CC(=O)c1sc2c(c1OC(=O)c1ccco1)c(=O)n(-c1ccccc1)c(=S)n2-c1ccccc1` reads inactive: 24.7 µM. Under `O=c1[nH]c(=O)n(C2CC(O)C(CO)O2)cc1C1=NC1` (stereo not given) stands inactive: > 100 µM. The result for `O=C1NC(=S)NC(=O)C1=C/C=C/c1ccc([N+](=O)[O-])cc1` reads inactive: 22 µM; that for `N#Cc1c(-c2ccccc2)c(-c2ccccc2)cc2c(=O)c3ccc(Cl)cc3[nH]c12`, inactive: > 100 µM; that for `Fc1cc(-c2cc(-c3ccccc3)no2)c(Cl)cc1Cl`, inactive: > 35 µM. For the compound `CCOC(=O)/C(C#N)=C/c1[nH]c(C)c(C)c1C`, the GI50 is inactive: > 100 µM.

With `Cn1c2ccccc2c2c(-c3ccccc3)[n+]3ccccc3nc21`, the GI50 is inactive: 66.5 µM. For the compound `CC(C)CC(NC(=O)OC(C)(C)C)C(=O)Nc1ccc(Nc2nc(F)nc(-c3c4ccccc4c4n3CCS4)n2)cc1` (stereo not given), the GI50 was inactive: 25.9 µM.

Turning to `N#CC1=C(N)N(/N=C/c2ccco2)C(c2ccco2)C1(C#N)C#N` (stereo not given), the GI50 was inactive: 16.9 µM. Turning to `C/C=C/C=C/C1=NN(c2cccc(S(=O)(=O)O)c2)C2(C1)C(Cl)C(=O)N2c1nc2ccccc2s1` (stereo not given), the GI50 was inactive: 18.2 µM. Under `O=c1[nH]c(=O)n(C2CC(O)C(CO)O2)c2nc3cc4ccccc4cc3nc12` (stereo not given) stands inactive: 64.1 µM. Under `COc1cn2c(cc1=O)COc1ccc(-c3ccccc3)cc1-2` stands inactive: 56.9 µM. The result for `CC(C)=CCc1c(O)c(CC2=C(O)C(CC=C(C)C)(C(=O)C(C)C)C(O)=C(C)C2=O)c(O)c(C(=O)C(C)C)c1O` (stereo not given) reads inactive: 8.13 µM. Take `CC1(C)C2CCC1(C)C(OC(=O)/C=C/C(=O)OC1CC3CCC1(C)C3(C)C)C2` (stereo not given): the GI50 was inactive: > 100 µM. Regarding `CCN1C(NN)=NS(=O)(=O)c2ccccc21`, the GI50 was inactive: > 100 µM. Under `COc1cc(/C=C/C(=O)Oc2ccccc2)ccc1C(=O)O/C=C/c1ccccc1` stands inactive: > 100 µM; under `Nn1c(S)nnc1C12CC3CC(CC(C3)C1)C2`, inactive: > 100 µM. Under `COC(=O)C(C(=O)C(N)=O)c1csc(-n2nc(-c3ccccc3)cc2-c2ccccc2)n1` (stereo not given) stands inactive: > 31.6 µM; under `O=c1c2ccccc2[nH]c2c(Cl)cc(Cl)c(NC3CCCCC3)c12`, inactive: 30.2 µM; under `COc1ccccc1/C=C1\CCC(CN2CCOCC2)C1=O` (stereo not given), inactive: 18.4 µM.

For `NC(=O)OCC(COc1ccc(Cl)cc1)OC(=O)c1ccccc1Cl` (stereo not given), the GI50 was inactive: 31.8 µM.

For `C/C(=N/NC(=O)C[N+](C)(C)C)C(CN(C)C)C(=O)Nc1ccccc1` (stereo not given), the GI50 is inactive: > 100 µM. Regarding `O=C1c2ccccc2-c2ccc(O)cc21`, the GI50 was inactive: 16.8 µM.

Consider `CC1=NN(c2cccc(Cl)c2)C(=N/c2nc3ccccc3s2)/C1=C\c1ccccc1O`, for which the GI50 is inactive: 30.6 µM. Under `CC(=O)/C=C\C(=O)NNS(=O)(=O)c1ccc(C)cc1` stands inactive: > 100 µM; under `OC12C3C4CC5C(C4[C@@H]1Br)C2[C@@](O)(c1c(F)c(F)c(F)c(F)c1F)C53` (stereo not given in full), inactive: 62.1 µM; under `C[n+]1cn(C2=C([N-]S(=O)(=O)c3ccccc3)C(=O)c3ccccc3C2=O)c2ccccc21`, inactive: 34.2 µM. With `CCCCCCCCCc1cc(O)c(O)cc1CCCCCCCCC`, the GI50 is inactive: > 10 µM. Regarding `CN1N=C(c2ccncc2)OC1c1ccc(C(F)(F)F)cc1` (stereo not given), the GI50 was inactive: > 100 µM.

For the compound `COC(=O)C(Cc1cc(OC)c(OC)c(OC)c1)C(=O)OC`, the GI50 is inactive: > 320 µM. The result for `Fc1ccccc1C1SCc2nc3cc4ccccc4cc3n21` (stereo not given) reads inactive: 47.3 µM. The result for `O=S(=O)(O)c1ccc2c(/N=N/c3cccc4ccccc34)c(O)c(S(=O)(=O)O)cc2c1` reads inactive: > 100 µM; that for `CCOP(=O)(O)C(Nc1ccc(/N=N/c2ccccc2)cc1)c1ccc(C(Nc2ccc(/N=N/c3ccccc3)cc2)P(=O)(O)OCC)cc1` (stereo not given), inactive: 23.2 µM; that for `CC(=O)OCC1OC(OC2CC3C(C)(C)C(OC(C)=O)CC[C@]3(C)C3CCC45CC4(CC[C@H]5C(C)CC(O)[C@@H](O)C(C)(C)O)[C@]23C)C(O)C(O)C1O` (stereo not given in full), inactive: 7.74 µM. Take `COC1=CC(=O)[C@]2(C)[C@H](C1=O)C(C)[C@H]2c1ccccc1` (stereo not given in full): the GI50 was inactive: > 100 µM. Turning to `CC(C)=CCC/C(C)=C/CC/C(C)=C/Cc1c(O)c2ccccc2oc1=O`, the GI50 is inactive: > 100 µM. The result for `N#C/C(=C\c1ccc(O)c(O)c1)C(N)=O` reads inactive: 34.3 µM; that for `CCOc1ccc(NCc2cc(OC)c(OC)c(OC)c2)cc1`, inactive: 4.39 µM. Under `CN1C(=O)c2c(c3c4ccccc4n(C4OC(CO)C(O)C(O)C4O)c3c3[nH]c4ccccc4c23)C1=O` (stereo not given) stands inactive: 2.96 µM.
